Measured values from the RNAGym collection of RNA variant scans (doi:10.1073/pnas.2313332121).
This sample is rich in variants without activity.

B1: TPR 5TU (parent)
chain: GGAUCUUCUCGAUCUAACAAAAAAGACAAAUCUGCCACAAAGCUUGAGAGCAUCUUCGGAUGCAGAGGCGGCAGCCUUCGGUGGCGCGAUAGCGCCAACGUUCUCAACUAUGACACGCAAAACGCGUGCUCCGUUGAAUGGAGUUUAUCAUG

Variants of: B1
Assay: polymerase ribozyme fitness, log enrichment relative to wild type (log ratio); higher = more active; in vitro selection for triplet polymerase activity
How it was run: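 Mutant libraries for each subunit of a heterodimeric triplet polymerase ribozyme were made by PCR and then transcribed. Each library underwent one round of in vitro selection in triplicate: annealing with a biotinylated primer, the partner subunit and triplets, frozen incubation at −7 °C, gel excision of extended constructs, streptavidin-bead capture and RT-PCR. Input and output libraries were Illumina-sequenced, and only genotypes with ≥10 input reads and ≥1 read per output were kept. Fitness is the logarithm, base 2, of genotype enrichment over wild-type enrichment, computed from inverse-variance-weighted replicate averages.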

Row | Variant | polymerase ribozyme fitness (log ratio)
1 | U53A G92U A107U G136U | ≤ -4.2
2 | U53A C76U U77G G141A | ≤ -4.2
3 | U53A C93A U101C C125U C132U G140U A147C | ≤ -4.2
4 | A52U G94A G133U G143U | -3.88
5 | U53G C87G A91G | ≤ -4.2
6 | A52U C57A G88U C108A U135A | ≤ -4.2
7 | U53A C85G G100U U101G | ≤ -4.2
8 | U53A C54U C85G | -2.55
9 | U53A C54U U55A C57U U77A A97G A119U | ≤ -4.2
10 | U53A G59A G84U | -1.32
11 | U53A A91C | ≤ -4.2
12 | A52U C69G A89C C93G C103A A150G | ≤ -4.2
13 | U53A U56A C85G G140C | ≤ -4.2
14 | U53A U56G A115U A120G | -2.77
15 | A52U C93A | ≤ -4.2
16 | A52U G92A G140U | ≤ -4.2
17 | A52U G92C | -2.01
18 | U53A G74A G92A C149A | ≤ -4.2
19 | A52U U53G C93A G133U | ≤ -4.2
20 | U53A U55A G68U U127G | ≤ -4.2
21 | U53A C54A C108G G140A | ≤ -4.2

Row | Variant | polymerase ribozyme fitness (log ratio)
22 | A52G G92C G124C U151C | ≤ -4.2
23 | C54A C93A A97U | ≤ -4.2
24 | A52U U53A G59A G71A G81U C87U | ≤ -4.2
25 | U53C G86U C96A U146A | -2.73
26 | A52G U90A | ≤ -4.2
27 | A52G U53A G84A | -0.8
28 | U53A G62C G84A G136A | -3.58
29 | A52U U53A C57A G81U G83C C103G G126A | ≤ -4.2
30 | U53G C79U A91G G140C U144A U145G | ≤ -4.2
31 | U53A G88C C96A A110G | ≤ -4.2
32 | U53A A64G A73G G80C U109A | ≤ -4.2
33 | U53G G81A A115C C116U C129G U135G U146C | ≤ -4.2
34 | U53A U135C A150C | ≤ -4.2
35 | C54A C85G G117U G126U A137U | ≤ -4.2
36 | A52U U56A C79G G80A G126A A138G A147C | ≤ -4.2
37 | A52U G58C U78A G140C A142U | ≤ -4.2
38 | U53G G80C C116G A122U G141C | ≤ -4.2
39 | U53A C75U G88C | ≤ -4.2
40 | U53A U55A G62C | -2.35
41 | U53A G74A U77A C96U G126C | ≤ -4.2
42 | A52U C96A U134G | ≤ -4.2

Row | Variant | polymerase ribozyme fitness (log ratio)
43 | U53A G86A U104G C132G U135C | ≤ -4.2
44 | A52G U56A G86U G94A C95G | ≤ -4.2
45 | U53A C76A U90C C95G U104G | ≤ -4.2
46 | U53G G92A U148A | ≤ -4.2
47 | U53G C54A | -2.07
48 | U53G U55G C93A A137C | ≤ -4.2
49 | A52G U55A C76A A91G A138G | ≤ -4.2
50 | U53A G71A C75A G124C C132U | ≤ -4.2
51 | C54A C95U | -2.22
52 | U53A A120G | -1.88
53 | C54A C85A U139A | ≤ -4.2
54 | U53A U55A U56A C76G G86C A137C A142U | ≤ -4.2
55 | A52U U77A G88C A119U | ≤ -4.2
56 | C54A C76A C87G G124A | ≤ -4.2
57 | A52G U56G G86A C95U A142C | ≤ -4.2
58 | A52U C85G G133U U145G | ≤ -4.2
59 | A52U U101G | -2.22
60 | U53A G59C A60G G84A | -1.76
61 | U53G A110C | ≤ -4.2
62 | U53G U55A | -1.92
63 | U53C G88U A97G A107C C114U C131G | ≤ -4.2

Row | Variant | polymerase ribozyme fitness (log ratio)
64 | U53A C79A U148A | ≤ -4.2
65 | U53C U56C C75U C87A G141C | ≤ -4.2
66 | U53G A97U | -2.68
67 | U53G A97C | -1.81
68 | U53G A97G | -1.44
69 | A52G U102G A110G | ≤ -4.2
70 | A52U G92U C105A | -3.93
71 | U53A U56A G83A C108G A137U C149U | ≤ -4.2
72 | A52U A60C G88U | ≤ -4.2
73 | U53G C57A C72U A73U C85G A97C | ≤ -4.2
74 | A52G U61A G86A G140U | ≤ -4.2
75 | A52U A73U C85A C108G A119C U127C G140A | ≤ -4.2
76 | U53A A73U | -2.21
77 | U53A A73C | -3.99
78 | U53A G70C G136A | ≤ -4.2
79 | A52U C76G | ≤ -4.2
80 | U53C G140C | ≤ -4.2
81 | A52U C123G | -1.97
82 | U53A G67A U102G A120G | ≤ -4.2
83 | A52G U144A | -0.831
84 | A52U U56A U61A C75U C93U C99G C132G | ≤ -4.2
